One test deals with HSkMC. Nature of the test: cytotoxicity call (relative viability < 0.9). Particulars: 10 µM.
A further test deals with S. aureus RN4220. Nature of the test: growth inhibition call (relative growth <= 0.2). Particulars: 50 µM.

SMILES strings stand for the structures. This is one part of the list.

For `C[C@@H]1CN([C@@H](C)CO)C(=O)c2cc(NC(=O)Cc3ccccc3)ccc2O[C@H]1CN(C)S(=O)(=O)c1ccccc1`, the cytotoxicity call in the test on HSkMC is “inactive”. Besides, the growth inhibition call in the test with S. aureus RN4220 was “inactive”.
For the compound `Cc1ccc(S(=O)(=O)Nc2ccc3c(c2)CC(=O)N([C@@H](C)CO)C[C@@H](C)[C@H](CN(C)S(=O)(=O)c2ccc(F)cc2)O3)cc1`, the cytotoxicity call with HSkMC was “inactive”. For the same compound, the growth inhibition call in the test on S. aureus RN4220 is “inactive”.
Turning to `C[C@@H]1CN([C@@H](C)CO)C(=O)c2cc(NC(=O)Cn3cnnn3)ccc2O[C@@H]1CN(C)S(=O)(=O)c1ccc(F)cc1`, the cytotoxicity call with HSkMC was “inactive”. Also, in the test on S. aureus RN4220, the growth inhibition call was “inactive”.
Consider `COCC(=O)Nc1ccc2c(c1)OC[C@@H](C)N(C(=O)CN1CCOCC1)C[C@@H](C)[C@H](OC)CN(C)C2=O`, for which the cytotoxicity call with HSkMC was “inactive”. Besides, the growth inhibition call in the test with S. aureus RN4220 was “inactive”.
Turning to `C[C@@H]1CCCCO[C@@H](CN(C)C(=O)Cc2ccccc2)[C@H](C)CN([C@@H](C)CO)C(=O)c2cc(NS(=O)(=O)c3cccs3)ccc2O1`, the cytotoxicity call in the test with HSkMC is “inactive”. Besides, the growth inhibition call with S. aureus RN4220 is “inactive”.
Take `O=C(CN1CCOCC1)N[C@@H]1CC[C@H](CCn2cc(C3CCCC3)nn2)O[C@@H]1CO`: in the test on HSkMC, the cytotoxicity call is “inactive”. Further, the growth inhibition call with S. aureus RN4220 was “inactive”.
`C[C@@H]1CN([C@@H](C)CO)C(=O)c2cccc(NC(=O)NC3CCCCC3)c2O[C@@H]1CN(C)Cc1ccc(Oc2ccccc2)cc1`: the cytotoxicity call in the test on HSkMC was “inactive”. The growth inhibition call with S. aureus RN4220 is “inactive”.
Take `O=C(O)CC(O)(CC(=O)O)C(=O)O`: in the test with HSkMC, the cytotoxicity call was “inactive”. Moreover, the growth inhibition call in the test with S. aureus RN4220 was “inactive”.
With `C[C@H](CO)N1C[C@H](C)[C@H](CN(C)C(=O)Nc2ccc(C(F)(F)F)cc2)Oc2ccc(NC(=O)Cc3ccccc3)cc2CC1=O`, the cytotoxicity call in the test on HSkMC is “inactive”. Besides, in the test on S. aureus RN4220, the growth inhibition call was “inactive”.
Consider `CC(C)NC(=O)Nc1ccc2c(c1)CC(=O)N([C@@H](C)CO)C[C@H](C)[C@@H](CN(C)S(=O)(=O)c1ccc(F)cc1)O2`, for which the cytotoxicity call with HSkMC was “inactive”. Also, the growth inhibition call in the test with S. aureus RN4220 is “inactive”.
Regarding `NCc1ccc(-c2ccc(Br)cc2)cc1`, in the test with HSkMC, the cytotoxicity call was “inactive”. Moreover, the growth inhibition call in the test with S. aureus RN4220 was “inactive”.
On to `C[C@@H]1CCCCO[C@H](CN(C)S(=O)(=O)c2cn(C)cn2)[C@@H](C)CN([C@H](C)CO)C(=O)c2cc(NC(=O)c3ccncc3)ccc2O1`, for which the cytotoxicity call with HSkMC is “inactive”. Also, the growth inhibition call with S. aureus RN4220 is “inactive”.
Regarding `Cc1noc(C)c1NC(=O)Nc1ccc2c(c1)C(=O)N([C@@H](C)CO)C[C@H](C)[C@H](CN(C)C(=O)Nc1ccc3c(c1)OCO3)OCCCC[C@H](C)O2`, the cytotoxicity call in the test with HSkMC is “inactive”. Further, the growth inhibition call with S. aureus RN4220 was “inactive”.
On to `CC(C)CC#Cc1ccc2c(c1)O[C@@H](CN(C)S(=O)(=O)c1ccc(F)cc1)[C@@H](C)CN([C@H](C)CO)S2(=O)=O`, for which the cytotoxicity call in the test with HSkMC is “inactive”. Further, the growth inhibition call with S. aureus RN4220 was “inactive”.
With `Cc1noc(C)c1NC(=O)Nc1ccc2c(c1)CC(=O)N([C@H](C)CO)C[C@H](C)[C@H](CN(C)S(=O)(=O)c1cn(C)cn1)O2`, the cytotoxicity call in the test on HSkMC was “inactive”. The growth inhibition call in the test with S. aureus RN4220 is “inactive”.
For `C[C@H](CO)N1C[C@H](C)[C@H](CN(C)S(=O)(=O)c2ccc(Cl)cc2)Oc2ccc(NC(=O)C3CC3)cc2CC1=O`, the cytotoxicity call in the test with HSkMC was “inactive”. In addition, the growth inhibition call in the test on S. aureus RN4220 was “inactive”.
Consider `COc1ccc(CN(C)C[C@@H]2OCCCC[C@@H](C)Oc3ccc(NC(=O)CCCCCC(=O)Nc4ccccc4N)cc3C(=O)N([C@H](C)CO)C[C@@H]2C)cc1`, for which the cytotoxicity call in the test on HSkMC was “inactive”. Besides, the growth inhibition call in the test on S. aureus RN4220 was “inactive”.
As for `CC(C)CC#Cc1ccc2c(c1)O[C@H](CN(C)C(=O)c1cccnc1)[C@@H](C)CN([C@@H](C)CO)S2(=O)=O`, the cytotoxicity call in the test on HSkMC was “inactive”. For the same compound, in the test with S. aureus RN4220, the growth inhibition call was “inactive”.
`O=C(O)c1ccc(O)c(O)c1`: the cytotoxicity call with HSkMC was “inactive”. Moreover, in the test with S. aureus RN4220, the growth inhibition call was “inactive”.
With `C[C@@H]1CN([C@@H](C)CO)C(=O)Cc2cc(NS(=O)(=O)c3cn(C)cn3)ccc2O[C@@H]1CN(C)S(=O)(=O)c1ccc(Cl)cc1`, the cytotoxicity call in the test on HSkMC (human skeletal muscle cells) was “inactive”. Also, the growth inhibition call in the test on S. aureus RN4220 is “inactive”.
`O=C1C[C@H](N2C(=O)CCC2=O)[C@@H]2CO[C@@H]1O2`: the cytotoxicity call with HSkMC is “inactive”. In the test on S. aureus RN4220, the growth inhibition call was “inactive”.
Take `O=C(C[C@@H]1C[C@@H]2c3cc(NS(=O)(=O)c4ccc(F)cc4)ccc3O[C@@H]2[C@H](CO)O1)NCc1ccncc1`: the cytotoxicity call with HSkMC is “inactive”. For the same compound, the growth inhibition call with S. aureus RN4220 was “inactive”.
Take `CC(C)NC(=O)Nc1cccc2c1O[C@@H](CN(C)Cc1ccc(Oc3ccccc3)cc1)[C@H](C)CN([C@H](C)CO)C2=O`: the cytotoxicity call with HSkMC is “inactive”. The growth inhibition call in the test on S. aureus RN4220 is “inactive”.
As for `NC1CCN(C(=O)NC2CCCCC2)CC1`, the cytotoxicity call in the test with HSkMC was “inactive”. Also, in the test on S. aureus RN4220, the growth inhibition call was “inactive”.

The values above are taken from the antibiotic and cytotoxicity screens of Wong et al. (2023).
